Measured values published in the supplement of paper PMC12217912.
The list shows a part of the results. The full chains were built here from the parent and the listed change. Inactive controls read about 0.05.

B1: TEV protease; numbered along this chain (parent)
chain: MGESLFKGPRDYNPISSSICHLTNESDGHTTSLYGIGFGPFIITNKHLFRRNNGTLVVQSLHGVFKVKDTTTLQQHLVDGRDMIIIRMPKDFPPFPQKLKFREPQREERICLVTTNFQTKSMSSMVSDTSCTFPSGDGIFWKHWIQTKDGQCGSPLVSTRDGFIVGIHSASNFTNTNNYFTSVPKNFMELLTNQEAQQWVSGWRLNADSVLWGGHKVFMVKPEEPFQPVKEATQL

Variants of: B1
Experiment: raw area under fraction-flipped curve 0-4 h after induction (AUC4h, not background-subtracted), DNA-recorder readout of cleavage of the substrate (dimensionless); higher = more cleavage of the substrate by the protease variant
Details: temperature: 34 °C; time window: 0-4 h after rhamnose induction
Description: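 In vivo DNA recorder in E. coli TOP10(DE3) ΔrhaA at 34 °C. Each TEVp single-site mutant (parent TEVp 0) is paired with a single-site variant of the 7-mer TEVs (canonical ENLYFQ|S). The substrate sits between flexible linkers in a Bxb1-sfGFP-TEVs-SsrA fusion, so cleavage stabilises Bxb1 and speeds flipping of a recombination array, read by NGS. The value is the raw area under the fraction-flipped curve over 0-4 h after rhamnose induction (AUC4h), with ≥20 reads per time point. It is not background-subtracted; inactive controls average about 0.047.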
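Note: Bxb1 expression induced with 0.2% (w/v) L-rhamnose at OD600 near 0.5, cultures sampled hourly, flipped fraction per protease–substrate barcode pair counted by paired-end Illumina sequencing.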

Row | Variant | area with substrate ENLYFAS | area with substrate ENLYFCS | area with substrate ENLYFFS | area with substrate ENLYFHS | area with substrate ENLYFIS | area with substrate ENLYFMS | area with substrate ENLYFNS | area with substrate ENLYFPS | area with substrate ENLYFRS | area with substrate ENLYFSS
1 | W141F | 0.0586 | 0.0507 | 0.0663 | 0.0585 | 0.0627 | 0.0627 | 0.0586 | 0.0625 | 0.0509 | 0.0672
2 | I145G | 0.078 | – | – | 0.0533 | 0.0502 | – | – | 0.0806 | – | –
3 | I145N | 0.0786 | – | 0.0614 | 0.0753 | 0.0599 | 0.0738 | 0.0622 | 0.0542 | 0.0455 | –
4 | T147V | 0.0502 | – | – | – | – | 0.0619 | 0.0726 | – | 0.0559 | –
5 | D149P | 0.0644 | – | 0.104 | 0.0487 | – | – | – | – | 0.058 | –
6 | G150A | 0.0617 | – | – | – | 0.0545 | – | – | 0.0655 | – | –
7 | G153F | 0.0339 | – | 0.0615 | 0.0561 | 0.0511 | 0.0432 | 0.0804 | 0.0644 | 0.0491 | –
8 | G153L | 0.0495 | – | 0.0533 | – | 0.043 | 0.0589 | 0.0265 | – | 0.0363 | 0.0514
9 | G153M | 0.0392 | 0.0377 | 0.0411 | 0.046 | – | 0.041 | 0.0573 | – | 0.0473 | 0.0384
10 | S154D | 0.0528 | 0.0425 | – | – | 0.0375 | 0.0464 | – | – | – | –
11 | S154V | 0.0572 | – | 0.0759 | 0.0765 | 0.045 | 0.0554 | 0.0577 | 0.0701 | – | –
12 | P155G | 0.0584 | 0.0562 | 0.0573 | – | 0.0449 | 0.0445 | 0.0673 | 0.0533 | – | 0.051
13 | S158V | 0.0308 | – | 0.0641 | 0.0534 | 0.0589 | 0.0477 | 0.0533 | 0.0465 | 0.0695 | 0.0543
14 | T159P | 0.0548 | – | – | – | 0.0563 | 0.057 | – | – | – | –
15 | D161G | 0.0474 | – | – | – | 0.0568 | 0.0629 | 0.0652 | 0.0521 | – | –
16 | F163S | 0.0387 | – | – | – | – | – | – | 0.0541 | – | –
17 | F163Y | 0.056 | 0.0676 | – | 0.0799 | 0.0539 | 0.0644 | 0.0657 | 0.0655 | – | 0.0584
18 | V165I | 0.0617 | – | 0.0679 | – | 0.0658 | – | – | – | – | 0.0824
19 | G166E | 0.0489 | – | 0.0672 | – | 0.0467 | 0.0535 | – | 0.0551 | 0.0495 | –

Row | Variant | area with substrate ENLYFAS | area with substrate ENLYFCS | area with substrate ENLYFFS | area with substrate ENLYFHS | area with substrate ENLYFIS | area with substrate ENLYFMS | area with substrate ENLYFNS | area with substrate ENLYFPS | area with substrate ENLYFRS | area with substrate ENLYFSS
20 | S169K | 0.0684 | 0.0936 | 0.0481 | – | – | – | – | 0.0329 | – | 0.0457
21 | A170E | 0.0432 | – | 0.0634 | – | 0.0462 | 0.0562 | – | 0.0558 | – | –
22 | A170W | 0.0608 | – | 0.0694 | 0.0535 | 0.0615 | – | 0.0362 | 0.0666 | – | –
23 | S171Y | 0.0464 | 0.045 | 0.078 | – | 0.0571 | 0.061 | 0.0453 | 0.0607 | 0.0579 | –
24 | N172A | 0.0486 | – | 0.0573 | – | – | 0.0506 | 0.0639 | 0.0661 | – | 0.0654
25 | N172M | 0.0462 | – | – | – | – | 0.0378 | – | – | – | –
26 | N172Q | 0.0824 | – | 0.0666 | – | 0.0505 | – | – | 0.0669 | 0.082 | –
27 | N172R | 0.0568 | 0.0532 | – | 0.0577 | 0.0538 | 0.0623 | 0.0563 | 0.0686 | – | 0.0639
28 | T174C | 0.0559 | 0.0578 | 0.0773 | – | 0.0518 | – | – | 0.0625 | 0.0501 | 0.0559
29 | T174I | 0.0537 | – | – | – | – | 0.0768 | – | 0.0673 | – | –
30 | N175A | 0.0333 | 0.027 | 0.072 | 0.0544 | 0.0575 | 0.0543 | – | 0.0833 | – | 0.0645
31 | N175S | 0.0543 | 0.101 | 0.0763 | – | 0.0697 | 0.0668 | – | 0.0636 | 0.0681 | –
32 | T176Q | 0.0709 | – | 0.0823 | 0.054 | 0.0424 | – | – | 0.0636 | 0.0506 | 0.0297
33 | N178C | 0.0611 | – | – | 0.0498 | 0.0637 | – | – | – | – | –
34 | T181H | 0.0576 | – | – | – | 0.0633 | – | – | – | 0.0595 | –
35 | T181I | 0.0627 | – | 0.0626 | – | – | – | 0.0451 | 0.0408 | – | –
36 | T181V | 0.0566 | 0.0641 | 0.0571 | – | 0.0533 | 0.0593 | – | 0.0623 | – | –
37 | S182E | 0.0614 | – | – | 0.0426 | 0.0528 | – | – | 0.0548 | 0.0648 | –

Same assay, conditions: temperature: 34 °C; time window: 0-4 h after rhamnose induction

Row | Variant | area with substrate ENLYFWS | area with substrate ENLYFYS | area with substrate ENLYFDS | area with substrate ENLYFGS | area with substrate ENLYFKS | area with substrate ENLYFTS | area with substrate ENLYFES | area with substrate ENLYFLS | area with substrate ENLYFVS
38 | W141F | 0.0568 | 0.055 | – | – | – | – | – | – | –
39 | I145G | 0.0469 | 0.0564 | 0.0524 | 0.0525 | 0.0436 | 0.0545 | – | – | –
40 | I145N | 0.0515 | – | 0.0719 | – | – | 0.0595 | 0.0786 | – | –
41 | T147V | – | – | 0.0491 | – | 0.0443 | 0.069 | – | 0.0561 | 0.0639
42 | D149P | – | 0.0518 | 0.0417 | – | – | – | – | – | –
43 | G150A | – | – | – | – | – | 0.0599 | 0.062 | – | –
44 | G153F | – | 0.0505 | – | – | – | – | – | – | –
45 | G153L | 0.0459 | 0.0443 | – | – | 0.0641 | 0.0459 | 0.0632 | 0.0274 | 0.0351
46 | G153M | – | 0.0496 | – | 0.0494 | – | 0.0449 | 0.0512 | – | –
47 | S154D | – | 0.0541 | – | 0.0473 | 0.0628 | 0.0531 | 0.0467 | 0.0527 | –
48 | S154V | – | – | – | – | 0.0584 | – | 0.0676 | – | –
49 | P155G | 0.0535 | – | – | 0.0598 | – | 0.0414 | 0.0747 | – | –
50 | S158V | 0.0546 | 0.044 | – | 0.049 | – | – | 0.0475 | 0.0378 | 0.057
51 | T159P | – | 0.0576 | 0.0547 | – | – | – | – | 0.0604 | –
52 | D161G | 0.0613 | 0.0426 | – | 0.0594 | 0.0683 | – | 0.0556 | – | –
53 | F163Y | 0.0761 | 0.0481 | – | – | – | 0.0591 | – | – | 0.0516
54 | V165I | 0.0509 | – | 0.063 | 0.0659 | – | – | 0.0515 | – | –

Row | Variant | area with substrate ENLYFWS | area with substrate ENLYFYS | area with substrate ENLYFDS | area with substrate ENLYFGS | area with substrate ENLYFKS | area with substrate ENLYFTS | area with substrate ENLYFES | area with substrate ENLYFLS | area with substrate ENLYFVS
55 | G166E | 0.053 | – | – | – | – | – | 0.0574 | – | –
56 | S169K | 0.032 | – | – | – | – | – | 0.0348 | 0.0569 | 0.0699
57 | A170E | – | – | – | – | 0.0694 | – | – | – | –
58 | A170W | – | – | – | – | – | 0.0615 | – | – | –
59 | S171Y | – | – | 0.0674 | 0.069 | – | 0.0592 | 0.0563 | 0.0673 | –
60 | N172A | – | – | – | – | 0.0584 | – | – | 0.0496 | –
61 | N172Q | 0.0273 | – | – | – | – | – | – | – | –
62 | N172R | 0.0559 | 0.0627 | – | 0.0485 | 0.0644 | 0.0661 | – | 0.0596 | –
63 | T174C | – | 0.0457 | – | – | 0.0562 | 0.0639 | 0.063 | – | –
64 | T174I | – | – | – | 0.0643 | – | – | 0.0579 | – | –
65 | N175A | 0.058 | – | – | – | 0.0512 | 0.0566 | 0.0641 | – | –
66 | N175S | – | – | – | 0.0706 | – | – | 0.0694 | – | –
67 | N178C | – | – | – | – | – | – | 0.0726 | – | 0.0108
68 | T181H | 0.033 | 0.0303 | – | 0.0466 | – | 0.0633 | 0.0607 | – | –
69 | T181I | – | – | – | 0.0935 | – | 0.0462 | 0.0485 | – | –
70 | T181V | – | 0.0571 | 0.074 | 0.0759 | 0.063 | 0.066 | 0.047 | – | 0.0537
71 | S182E | 0.0512 | 0.0614 | 0.0483 | 0.0081 | 0.0559 | – | 0.0568 | – | –
